From US8088574B2, “Poly(A) polymerase” (Wisconsin Alumni Research Foundation, priority 2007, dated 2012)

Target: PAPα (Homo sapiens, UniProt P51003)
Experiment: PAP assay with FLAG-PAPα isolated from tBHQ-treated cells
Type: cell-based
Conditions: 100 μM tBHQ

Sequence of PAPα (P51003 whole entry): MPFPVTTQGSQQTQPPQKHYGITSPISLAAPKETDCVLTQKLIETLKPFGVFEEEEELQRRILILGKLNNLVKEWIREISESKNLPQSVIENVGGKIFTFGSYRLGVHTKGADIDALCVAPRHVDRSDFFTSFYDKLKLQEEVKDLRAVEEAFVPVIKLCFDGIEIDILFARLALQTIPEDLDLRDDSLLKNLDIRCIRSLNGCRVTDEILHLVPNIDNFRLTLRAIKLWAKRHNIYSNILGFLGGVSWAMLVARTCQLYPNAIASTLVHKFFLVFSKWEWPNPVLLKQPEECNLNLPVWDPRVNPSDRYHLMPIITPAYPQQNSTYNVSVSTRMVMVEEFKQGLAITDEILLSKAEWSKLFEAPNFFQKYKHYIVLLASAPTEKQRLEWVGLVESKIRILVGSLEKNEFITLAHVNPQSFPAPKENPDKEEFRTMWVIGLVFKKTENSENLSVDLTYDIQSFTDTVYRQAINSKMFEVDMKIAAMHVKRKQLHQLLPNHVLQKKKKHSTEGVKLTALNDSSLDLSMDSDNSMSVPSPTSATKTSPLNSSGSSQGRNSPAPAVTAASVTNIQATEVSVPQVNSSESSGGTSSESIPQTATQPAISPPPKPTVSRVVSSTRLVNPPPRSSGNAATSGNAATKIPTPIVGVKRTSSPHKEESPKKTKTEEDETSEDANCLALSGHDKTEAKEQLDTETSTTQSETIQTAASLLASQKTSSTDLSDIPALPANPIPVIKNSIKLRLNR

Structure (SMILES): CC(C)(C)c1cc(O)ccc1O [tBHQ, tert-butylhydroquinone]
- activity of PAPα isolated from tBHQ-treated cells: Neither polymerase-inactive Star-PAP nor PAPα showed any increase in activity
